± gives the standard deviation of the averaged measurements. Restriction of a single-cycle SIVsab GFP reporter by TRIM5α v1-loop variants in CRFK cells. Human variants: read share among cells still uninfected after two challenges over input, higher = gained restriction. Rhesus variants: share among infected cells over input, higher = lost restriction. Reporter dose not given per row. No active / inactive call per row; the paper calls a change when both replicates lie above its controls (mean + 2 SD of stop or wild-type variants, or the top frameshift score). Residues outside the varied loop are taken from Swiss-Prot. The paper reads the human single-substitution scores as noise; they and the rhesus combinations repeat poorly (rank correlation 0.3 to 0.4), indel scores repeat only for the top variants, rhesus substitutions well (0.9).
Test system: SIVsab (simian immunodeficiency virus of sabaeus monkeys), single-cycle GFP reporter, in CRFK cells
Assay: enrichment among infected cells over input (fold); higher = weaker restriction
Conditions: library: human / rhesus combinations
Method: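 Pools of CRFK cells expressing variants of the TRIM5α v1 loop were challenged with the single-cycle reporter, sorted by GFP and sequenced; mean of two replicates.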

**Q.** With “MASGILLNVKEEVTCPICLELLTEPLSLHCGHSFCQACITANHKKSMLYKEGERSCPVCRISYQPENIQPNRHVANIVEKLREVKLSPEEGQKVDHCARHGEKLLLFCQEDSKVICWLCERSQEHRGHHTFLMEEVAQEYHVKLQTALEMLRQKQQEAEKLEADIREEKASWKIQIDYDKTNVSADFEQLREILDWEESNELQNLEKEEEDILKSLTKSETEMVQQTQYMRELISELEHRLQGSMMDLLQGVDGIIKRIENMTLKKPKTFHKNQRRVFRAPDLKGMLDMFRELTDARRYWVDVTLAPNNISHAVIAEDKRQVSSRNPQIMYQAPGTLYTFQTLTNFNYCTGVLGSQSITSGKHYWEVDVSKKSAWILGVCAGFQSDAMYNIEQNENYQPKYGYWVIGLQEGVKYSVFQDGSSHTPFAPFIVPLSVIICPDRVGVFVDYEACTVSFFNITNHGFLIYKFSQCSFSKPVFPYLNPRKCTVPMTLCSPSS [rhesus TRIM5α, 332-344 = QAPGTLYTFQTLT]” as the sequence, how does the enrichment read?
**A.** 1.23 ± 0.91

**Q.** With “MASGILLNVKEEVTCPICLELLTEPLSLHCGHSFCQACITANHKKSMLYKEGERSCPVCRISYQPENIQPNRHVANIVEKLREVKLSPEEGQKVDHCARHGEKLLLFCQEDSKVICWLCERSQEHRGHHTFLMEEVAQEYHVKLQTALEMLRQKQQEAEKLEADIREEKASWKIQIDYDKTNVSADFEQLREILDWEESNELQNLEKEEEDILKSLTKSETEMVQQTQYMRELISELEHRLQGSMMDLLQGVDGIIKRIENMTLKKPKTFHKNQRRVFRAPDLKGMLDMFRELTDARRYWVDVTLAPNNISHAVIAEDKRQVSSRNPQIMYQARGTRFTFPTLVNFNYCTGVLGSQSITSGKHYWEVDVSKKSAWILGVCAGFQSDAMYNIEQNENYQPKYGYWVIGLQEGVKYSVFQDGSSHTPFAPFIVPLSVIICPDRVGVFVDYEACTVSFFNITNHGFLIYKFSQCSFSKPVFPYLNPRKCTVPMTLCSPSS [rhesus TRIM5α, 332-344 = QARGTRFTFPTLV]” as the sequence, how does the enrichment read?
**A.** 1.29 ± 0.63

**Q.** Which enrichment does the source give for “MASGILLNVKEEVTCPICLELLTEPLSLHCGHSFCQACITANHKKSMLYKEGERSCPVCRISYQPENIQPNRHVANIVEKLREVKLSPEEGQKVDHCARHGEKLLLFCQEDSKVICWLCERSQEHRGHHTFLMEEVAQEYHVKLQTALEMLRQKQQEAEKLEADIREEKASWKIQIDYDKTNVSADFEQLREILDWEESNELQNLEKEEEDILKSLTKSETEMVQQTQYMRELISELEHRLQGSMMDLLQGVDGIIKRIENMTLKKPKTFHKNQRRVFRAPDLKGMLDMFRELTDARRYWVDVTLAPNNISHAVIAEDKRQVSSRNPQIMYQARGTRYTFQSLTNFNYCTGVLGSQSITSGKHYWEVDVSKKSAWILGVCAGFQSDAMYNIEQNENYQPKYGYWVIGLQEGVKYSVFQDGSSHTPFAPFIVPLSVIICPDRVGVFVDYEACTVSFFNITNHGFLIYKFSQCSFSKPVFPYLNPRKCTVPMTLCSPSS [rhesus TRIM5α, 332-344 = QARGTRYTFQSLT]” here?
**A.** 1 ± 0.051

**Q.** Which enrichment does the source give for “MASGILLNVKEEVTCPICLELLTEPLSLHCGHSFCQACITANHKKSMLYKEGERSCPVCRISYQPENIQPNRHVANIVEKLREVKLSPEEGQKVDHCARHGEKLLLFCQEDSKVICWLCERSQEHRGHHTFLMEEVAQEYHVKLQTALEMLRQKQQEAEKLEADIREEKASWKIQIDYDKTNVSADFEQLREILDWEESNELQNLEKEEEDILKSLTKSETEMVQQTQYMRELISELEHRLQGSMMDLLQGVDGIIKRIENMTLKKPKTFHKNQRRVFRAPDLKGMLDMFRELTDARRYWVDVTLAPNNISHAVIAEDKRQVSSRNPQIMYQAPGTLFTFQSFVNFNYCTGVLGSQSITSGKHYWEVDVSKKSAWILGVCAGFQSDAMYNIEQNENYQPKYGYWVIGLQEGVKYSVFQDGSSHTPFAPFIVPLSVIICPDRVGVFVDYEACTVSFFNITNHGFLIYKFSQCSFSKPVFPYLNPRKCTVPMTLCSPSS [rhesus TRIM5α, 332-344 = QAPGTLFTFQSFV]” here?
**A.** 0.718 ± 0.6

**Q.** “MASGILLNVKEEVTCPICLELLTEPLSLHCGHSFCQACITANHKKSMLYKEGERSCPVCRISYQPENIQPNRHVANIVEKLREVKLSPEEGQKVDHCARHGEKLLLFCQEDSKVICWLCERSQEHRGHHTFLMEEVAQEYHVKLQTALEMLRQKQQEAEKLEADIREEKASWKIQIDYDKTNVSADFEQLREILDWEESNELQNLEKEEEDILKSLTKSETEMVQQTQYMRELISELEHRLQGSMMDLLQGVDGIIKRIENMTLKKPKTFHKNQRRVFRAPDLKGMLDMFRELTDARRYWVDVTLAPNNISHAVIAEDKRQVSSRNPQIMYQARGTRFTFQSLTNFNYCTGVLGSQSITSGKHYWEVDVSKKSAWILGVCAGFQSDAMYNIEQNENYQPKYGYWVIGLQEGVKYSVFQDGSSHTPFAPFIVPLSVIICPDRVGVFVDYEACTVSFFNITNHGFLIYKFSQCSFSKPVFPYLNPRKCTVPMTLCSPSS [rhesus TRIM5α, 332-344 = QARGTRFTFQSLT]” was tested. Which enrichment did it give?
**A.** 1.11 ± 0.38

**Q.** “MASGILLNVKEEVTCPICLELLTEPLSLHCGHSFCQACITANHKKSMLYKEGERSCPVCRISYQPENIQPNRHVANIVEKLREVKLSPEEGQKVDHCARHGEKLLLFCQEDSKVICWLCERSQEHRGHHTFLMEEVAQEYHVKLQTALEMLRQKQQEAEKLEADIREEKASWKIQIDYDKTNVSADFEQLREILDWEESNELQNLEKEEEDILKSLTKSETEMVQQTQYMRELISELEHRLQGSMMDLLQGVDGIIKRIENMTLKKPKTFHKNQRRVFRAPDLKGMLDMFRELTDARRYWVDVTLAPNNISHAVIAEDKRQVSSRNPQIMYQAPGTLYTFQSFVNFNYCTGVLGSQSITSGKHYWEVDVSKKSAWILGVCAGFQSDAMYNIEQNENYQPKYGYWVIGLQEGVKYSVFQDGSSHTPFAPFIVPLSVIICPDRVGVFVDYEACTVSFFNITNHGFLIYKFSQCSFSKPVFPYLNPRKCTVPMTLCSPSS [rhesus TRIM5α, 332-344 = QAPGTLYTFQSFV]” was tested. Which enrichment did it give?
**A.** 1.67 ± 0.88

**Q.** Which enrichment does the source give for “MASGILLNVKEEVTCPICLELLTEPLSLHCGHSFCQACITANHKKSMLYKEGERSCPVCRISYQPENIQPNRHVANIVEKLREVKLSPEEGQKVDHCARHGEKLLLFCQEDSKVICWLCERSQEHRGHHTFLMEEVAQEYHVKLQTALEMLRQKQQEAEKLEADIREEKASWKIQIDYDKTNVSADFEQLREILDWEESNELQNLEKEEEDILKSLTKSETEMVQQTQYMRELISELEHRLQGSMMDLLQGVDGIIKRIENMTLKKPKTFHKNQRRVFRAPDLKGMLDMFRELTDARRYWVDVTLAPNNISHAVIAEDKRQVSSRNPQIMYQARGTLYTFQSFVNFNYCTGVLGSQSITSGKHYWEVDVSKKSAWILGVCAGFQSDAMYNIEQNENYQPKYGYWVIGLQEGVKYSVFQDGSSHTPFAPFIVPLSVIICPDRVGVFVDYEACTVSFFNITNHGFLIYKFSQCSFSKPVFPYLNPRKCTVPMTLCSPSS [rhesus TRIM5α, 332-344 = QARGTLYTFQSFV]” here?
**A.** 0.521 ± 0.28

**Q.** How did the enrichment turn out when “MASGILLNVKEEVTCPICLELLTEPLSLHCGHSFCQACITANHKKSMLYKEGERSCPVCRISYQPENIQPNRHVANIVEKLREVKLSPEEGQKVDHCARHGEKLLLFCQEDSKVICWLCERSQEHRGHHTFLMEEVAQEYHVKLQTALEMLRQKQQEAEKLEADIREEKASWKIQIDYDKTNVSADFEQLREILDWEESNELQNLEKEEEDILKSLTKSETEMVQQTQYMRELISELEHRLQGSMMDLLQGVDGIIKRIENMTLKKPKTFHKNQRRVFRAPDLKGMLDMFRELTDARRYWVDVTLAPNNISHAVIAEDKRQVSSRNPQIMYGAPGTLFTFPSFVNFNYCTGVLGSQSITSGKHYWEVDVSKKSAWILGVCAGFQSDAMYNIEQNENYQPKYGYWVIGLQEGVKYSVFQDGSSHTPFAPFIVPLSVIICPDRVGVFVDYEACTVSFFNITNHGFLIYKFSQCSFSKPVFPYLNPRKCTVPMTLCSPSS [rhesus TRIM5α, 332-344 = GAPGTLFTFPSFV]” was run?
**A.** 0.265 ± 0.0054

**Q.** “MASGILLNVKEEVTCPICLELLTEPLSLHCGHSFCQACITANHKKSMLYKEGERSCPVCRISYQPENIQPNRHVANIVEKLREVKLSPEEGQKVDHCARHGEKLLLFCQEDSKVICWLCERSQEHRGHHTFLMEEVAQEYHVKLQTALEMLRQKQQEAEKLEADIREEKASWKIQIDYDKTNVSADFEQLREILDWEESNELQNLEKEEEDILKSLTKSETEMVQQTQYMRELISELEHRLQGSMMDLLQGVDGIIKRIENMTLKKPKTFHKNQRRVFRAPDLKGMLDMFRELTDARRYWVDVTLAPNNISHAVIAEDKRQVSSRNPQIMYQAPGTLYTFPSFVNFNYCTGVLGSQSITSGKHYWEVDVSKKSAWILGVCAGFQSDAMYNIEQNENYQPKYGYWVIGLQEGVKYSVFQDGSSHTPFAPFIVPLSVIICPDRVGVFVDYEACTVSFFNITNHGFLIYKFSQCSFSKPVFPYLNPRKCTVPMTLCSPSS [rhesus TRIM5α, 332-344 = QAPGTLYTFPSFV]” was tested. Which enrichment did it give?
**A.** 1.76 ± 1.3

**Q.** With “MASGILLNVKEEVTCPICLELLTEPLSLHCGHSFCQACITANHKKSMLYKEGERSCPVCRISYQPENIQPNRHVANIVEKLREVKLSPEEGQKVDHCARHGEKLLLFCQEDSKVICWLCERSQEHRGHHTFLMEEVAQEYHVKLQTALEMLRQKQQEAEKLEADIREEKASWKIQIDYDKTNVSADFEQLREILDWEESNELQNLEKEEEDILKSLTKSETEMVQQTQYMRELISELEHRLQGSMMDLLQGVDGIIKRIENMTLKKPKTFHKNQRRVFRAPDLKGMLDMFRELTDARRYWVDVTLAPNNISHAVIAEDKRQVSSRNPQIMYQARGTLFTFQTFVNFNYCTGVLGSQSITSGKHYWEVDVSKKSAWILGVCAGFQSDAMYNIEQNENYQPKYGYWVIGLQEGVKYSVFQDGSSHTPFAPFIVPLSVIICPDRVGVFVDYEACTVSFFNITNHGFLIYKFSQCSFSKPVFPYLNPRKCTVPMTLCSPSS [rhesus TRIM5α, 332-344 = QARGTLFTFQTFV]” as the sequence, how does the enrichment read?
**A.** 1.03 ± 0.39

**Q.** Which enrichment does the source give for “MASGILLNVKEEVTCPICLELLTEPLSLHCGHSFCQACITANHKKSMLYKEGERSCPVCRISYQPENIQPNRHVANIVEKLREVKLSPEEGQKVDHCARHGEKLLLFCQEDSKVICWLCERSQEHRGHHTFLMEEVAQEYHVKLQTALEMLRQKQQEAEKLEADIREEKASWKIQIDYDKTNVSADFEQLREILDWEESNELQNLEKEEEDILKSLTKSETEMVQQTQYMRELISELEHRLQGSMMDLLQGVDGIIKRIENMTLKKPKTFHKNQRRVFRAPDLKGMLDMFRELTDARRYWVDVTLAPNNISHAVIAEDKRQVSSRNPQIMYQARGTRYTFPTLVNFNYCTGVLGSQSITSGKHYWEVDVSKKSAWILGVCAGFQSDAMYNIEQNENYQPKYGYWVIGLQEGVKYSVFQDGSSHTPFAPFIVPLSVIICPDRVGVFVDYEACTVSFFNITNHGFLIYKFSQCSFSKPVFPYLNPRKCTVPMTLCSPSS [rhesus TRIM5α, 332-344 = QARGTRYTFPTLV]” here?
**A.** 1.09 ± 1

**Q.** “MASGILLNVKEEVTCPICLELLTEPLSLHCGHSFCQACITANHKKSMLYKEGERSCPVCRISYQPENIQPNRHVANIVEKLREVKLSPEEGQKVDHCARHGEKLLLFCQEDSKVICWLCERSQEHRGHHTFLMEEVAQEYHVKLQTALEMLRQKQQEAEKLEADIREEKASWKIQIDYDKTNVSADFEQLREILDWEESNELQNLEKEEEDILKSLTKSETEMVQQTQYMRELISELEHRLQGSMMDLLQGVDGIIKRIENMTLKKPKTFHKNQRRVFRAPDLKGMLDMFRELTDARRYWVDVTLAPNNISHAVIAEDKRQVSSRNPQIMYGARGTLYTFPSFVNFNYCTGVLGSQSITSGKHYWEVDVSKKSAWILGVCAGFQSDAMYNIEQNENYQPKYGYWVIGLQEGVKYSVFQDGSSHTPFAPFIVPLSVIICPDRVGVFVDYEACTVSFFNITNHGFLIYKFSQCSFSKPVFPYLNPRKCTVPMTLCSPSS [rhesus TRIM5α, 332-344 = GARGTLYTFPSFV]” was tested. Which enrichment did it give?
**A.** 1.21 ± 0.16
